# Data published in the supplement of paper PMC11417369.
# Some of the results follow.
# System: PfHDP1 homeodomain (GST-tagged)
# Experiment: gcPBM binding intensity (ln(normalized median fluorescence intensity)); higher = stronger DNA binding
# Summary of the method: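 Binding intensity is defined as the maximum Masliner-normalised natural-log median intensity across replicate spots for either probe orientation. It was measured on an Agilent 4 × 180k array of primer-extended double-stranded 36-bp intergenic genomic probes and negative controls, to which GST-tagged P. falciparum DNA-binding domains made in E. coli were applied for 1 h in 1× PBS with 1% milk, 0.2 mg/ml BSA, 0.5% salmon testes DNA and 0.03% Triton X-100. Detection was by Alexa488 anti-GST antibody and scanning at 488 nm.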
row,Sequence,gcPBM binding intensity (ln)
1,TTACATATTTTCATTTGTACATATTCATTTTTTTTC [XGTACX_site6988],6.47
2,AAATAACCCACGTGCATGCACTTCAATAACTGAACT,9.18
3,TATATATTTATATATTGTACACTCTTATGTAGTGTA [XGTACX_site210],6.49
4,TAAAAAAGAAAAAGAGCACACAAAAATATTTAACCT [CACACA_site8885],6.8
5,TATAATAAATATACTGGTACACAAATATATATATTT [XGTACX_site7741],6.41
6,AACATCTTATCATCATGTACGAAGCAGTTTTATAAG [XGTACX_site2490],6.38
7,TGTAATTTTTTACGTTGTACATATATTAACAATATA [XGTACX_site3991],6.21
8,ATATTATATTTACATAGTACACTATATGTATATATA [XGTACX_site2101],6.36
9,TATGCATATACACAAGCACACATATATATATATATA [CACACA_site8266],9.23
10,AAAAAAATAATATAATATTAAATCTTAGTTAATAAA [GTGCAC_negctrl_site658],5.9
11,AAAAAAAAAAAAAAAAAAACTAATATAATAAAAATA [TGCATGCA_negctrl_site150],6.7
12,TTTTTTTTTTTTTTTTCTTTTTTTTTTTTAAATAAG [XGTACX_negctrl_site418],5.65
13,TTTTTTTTTTTTTACACACCCAAATCACATACATAT [CACACA_site6089],6.85
14,AAAAAAAAAAAAAAAACACACAAGGATCAGATAGAT [CACACA_site7743],6.58
15,TTTTTCAGAAAAGAAACACACATATAAATATTTATA [CACACA_site7170],6.54
16,TGTTGTTACCTATATACACACATATAAATATTATAG [CACACA_site7180],6.88
17,AATATTATGATATTATGTACATATTAAAAGCACCAC [XGTACX_site6236],7.51
18,AGGGCATATATATATGCACACATACATATATACATG [CACACA_site9282],8.86
19,TTTACACTTTTTTTTGTACACACTAAAAAGATTAAC [CACACA_site3933],6.58
20,TTTATCATGAACAGAAGTACATTTATATCAATGTCT [XGTACX_site6470],6.12
21,ATATATATATAATGTTGTACGTTTTATTCTCCCATT [XGTACX_site8071],8.82
22,ATATATATATATTTTACACACAATGGAGAAAAAAAT [CACACA_site644],8.69
23,TATTTTTAAAAGTTAACAGAAAAAATATAAATAAAT [GTGCAC_negctrl_site295],6.81

row,Sequence,gcPBM binding intensity (ln)
1,TGGTATATACGACACACACACATATGTATAAATATA [CACACA_site6561],7
2,TTTTCCCTTTTTTCCGCACACAATAAAATAAATAAA [CACACA_site2807],6.96
3,TACCATAATCAATGCACACATAACAAAATATTATTA [CACACA_site2722],9.98
4,TGTAATAAAATAATTAGTACACATATATGTATATTT [XGTACX_site5896],6.32
5,GTTTAAAATCTTTGCACACATATAAATAAATATATT [CACACA_site2555],10.4
6,AGTATATTAATATAATGTACAAACGTTTATTTTGTA [XGTACX_site5980],6.42
7,AGCAACCCCCTAGCTACACACATATAGATATAAATA [CACACA_site6577],7.48
8,GAAAAGTAGACAATATGTACATATAGTATTTATAAA [XGTACX_site878],6.75
9,AAATATCTACATATTTGTACATATTTATACATATTT [XGTACX_site6300],6.12
10,TATATATTATAAAAGAGTACAGAAAGAAAAAAAAAT [XGTACX_site8305],7.28
11,AAACTTTTTTTAAAAACACACATATATATTTATATA [CACACA_site4092],6.66
12,ATATTCAATATATTATGTACACATATATGAGGATAT [XGTACX_site7019],6.9
13,AGTTTATATTATTAAAGTACATATATATATTCTTAA [XGTACX_site3164],6.2
14,AGTCGAATGATGTACACACATACAAAACATTTATGC [CACACA_site4022],6.7
15,ATATATATATATATATGGTAAAGTAAAAGGAAATAC [XGTACX_negctrl_site45],9.54
16,GAATAATCTAGAAACACACAAACACGACAAAAGAAA [CACACA_site4135],7.04
17,TACTAACTTTTTAAAAGTACAGAACCATAACCATAA [XGTACX_site7182],6.79
18,ATCATGTTATATATATGTACTAATAATATAATATAA [XGTACX_site1326],6.61
19,TATATATAGAAACACACACACACATATATATATATA [CACACA_site4116],9.25
20,AAAATTTAATATAATGCACACATAAAAAAAAAATCA [CACACA_site7882],10.7
21,AATATCAATATTATATGTACTTATAATTTCAATGTA [XGTACX_site2423],6.37
22,TAAATTTATTAATCAAGTACAAAATAAATTTTTATA [XGTACX_site2745],5.78
23,TATTTATAAAAAAAATGTACATTTATGTATAAGCTA [XGTACX_site3266],6.63

row,Sequence,gcPBM binding intensity (ln)
1,ATAATGTTTCTTTCAACACACAAAAAATGAACCCAT [CACACA_site4947],7.16
2,TAAAAAAGTTATATTACACACTTTATTGGTTAACTT [CACACA_site653],6.18
3,ACATATAAATTATATACACACAATAATATATATATA [CACACA_site1384],8.56
4,TTTTTTTTTGTTAGTTGTACGTTAAATGAATTTACT [XGTACX_site7675],6.55
5,TAAATTAGAATAAATACACACAAATTAGAATTCTAT [CACACA_site7781],6.39
6,TAAAGTGTCAAATTCACACACATATATATATATATA [CACACA_site1380],9.28
7,AATGATTTTAAAAAATGTACTTTATAAACAAAATTA [XGTACX_site3803],6.11
8,GTATAATTGGAAATTACACACCTTATAATGTAACAT [CACACA_site6091],6.31
9,ATAAAAATAAATAAATTATATAAATGTAATATGAAA [GTGCAC_negctrl_site663],6.25
10,TTTAGAGAAGTCAAGTGTACATATAAAATAATTCAC [XGTACX_site4997],6.31
11,AAAAAAAAATATATATGTACATATGTATAATAAAAA [XGTACX_site2110],6.69
12,AATGAAGACTTTTTTACACACTTCATATATTATATA [CACACA_site2034],6.83
13,TATTTATTTATATATGCATGCTAATAATTATAACAT [TGCATGCA_site988],6.77
14,ATATTATATAACTTTTGTACGAACTATTTTATATAT [XGTACX_site6],6.73
15,ACCTATGTATATTATACACACTCCAAACTATTCTTT [CACACA_site6939],7.36
16,CCAAACTAAATGTACACACATACATAAATATAAATA [CACACA_site1141],6.66
17,ATGTAATAAATATACACACACAAATATATATATATA [CACACA_site2395],9.07
18,CATGAATATTTTAATGTGCACATTTATCATTATATG,10.6
19,ATATTTTCAGTTCTCCATTATGTTCCCATTATTTTT [CACACA_negctrl_site990],7.03
20,ATTTTAATTTGTTATACACACACAAAAAAAATTATA [CACACA_site9306],6.58
21,TATATCAAAATACATACACACATTTGTATTTACATT [CACACA_site5485],6.58
22,TTTTTTTTTAATCATGCACACTGTTAAAAGAATAAA [CACACA_site4817],8.29
23,ATTTATTTGAAGAATTGTACTAAATTATATAGCGGT [XGTACX_site4998],6.76

row,Sequence,gcPBM binding intensity (ln)
1,TATAAAAAAATATATATATATATTATATGTGTAGAA [TGCATGCA_negctrl_site391],7.03
2,ATAAATATTTATAACAGTACATATTTACTATCCTAA [XGTACX_site4497],6.16
3,TTATATATAATATGACGTACAATTATACATTTTATG [XGTACX_site7598],6.43
4,TATACACATATTTTTACACACATATTTTTTCATATA [CACACA_site7244],6.95
5,ACGATTAAATCGATAATACACACTAAATGTAAAACA [CACACA_site119],6.63
6,TATATTATTTTTAGAAGTACTTATTGTTATAATTCT [XGTACX_site1015],6.09
7,AGAAAAGATAAAAATAGTACATATATATTTACTTAT [XGTACX_site7820],6.25
8,CTCCTTTCAAAAAAATGTACATGTTTACATTTCAAG [XGTACX_site7342],6.56
9,TAGGAAAAAAATACAGTGCAATTTTTATATAAATAA [GTGCAC_site9979],8.04
10,TACATATTTTATAACTGTACTTTTTTATTATCCAAT [XGTACX_site5396],6.53
11,TTTATATAAATCAAATGTACATATTCCAAATATATA [XGTACX_site8515],6.35
12,TTTTTTTTTTTTTTGTGTACTAATATTATAAATTTT [XGTACX_site4405],6.44
13,TTTTTTTTTTCAAATACATGCATTTATGTATAATAC [TGCATGCA_site722],6.32
14,TGCTTATTTAGAATTGTGCACAGCGAATATTCTGTT,10.3
15,TACATTTATACTACTGCATTCAAAAAAAATAAAAAA [TGCATGCA_negctrl_site157],6.44
16,TTTTGTTATTTTTCAGTGCAATATGATAATAATATA,9.56
17,GAATCCTTAATATGAACACACAAATATATTACCCAT [CACACA_site186],6.78
18,TCTTTTTAACAAAAAAAAAAAAAAAAAAAAAAATTA [CACACA_negctrl_site1637],5.72
19,AGAATTTTATTATATTGTACTTTTTATAAACCTTGT [XGTACX_site7495],6.34
20,ATATATTTACTTAATACACACAAAAAAAAAAAAAAA [CACACA_site3657],6.38
